# From the supplement of paper PMC3334620
# Over roughly 33,000 sequences, “E-score (-0.5 to 0.5)” has its median near -0.035; the highest 2% begin near 0.35. This is one part of the list.
# Molecular target: T1, Pdr3 (UniProt P33200)
# T1 sequence: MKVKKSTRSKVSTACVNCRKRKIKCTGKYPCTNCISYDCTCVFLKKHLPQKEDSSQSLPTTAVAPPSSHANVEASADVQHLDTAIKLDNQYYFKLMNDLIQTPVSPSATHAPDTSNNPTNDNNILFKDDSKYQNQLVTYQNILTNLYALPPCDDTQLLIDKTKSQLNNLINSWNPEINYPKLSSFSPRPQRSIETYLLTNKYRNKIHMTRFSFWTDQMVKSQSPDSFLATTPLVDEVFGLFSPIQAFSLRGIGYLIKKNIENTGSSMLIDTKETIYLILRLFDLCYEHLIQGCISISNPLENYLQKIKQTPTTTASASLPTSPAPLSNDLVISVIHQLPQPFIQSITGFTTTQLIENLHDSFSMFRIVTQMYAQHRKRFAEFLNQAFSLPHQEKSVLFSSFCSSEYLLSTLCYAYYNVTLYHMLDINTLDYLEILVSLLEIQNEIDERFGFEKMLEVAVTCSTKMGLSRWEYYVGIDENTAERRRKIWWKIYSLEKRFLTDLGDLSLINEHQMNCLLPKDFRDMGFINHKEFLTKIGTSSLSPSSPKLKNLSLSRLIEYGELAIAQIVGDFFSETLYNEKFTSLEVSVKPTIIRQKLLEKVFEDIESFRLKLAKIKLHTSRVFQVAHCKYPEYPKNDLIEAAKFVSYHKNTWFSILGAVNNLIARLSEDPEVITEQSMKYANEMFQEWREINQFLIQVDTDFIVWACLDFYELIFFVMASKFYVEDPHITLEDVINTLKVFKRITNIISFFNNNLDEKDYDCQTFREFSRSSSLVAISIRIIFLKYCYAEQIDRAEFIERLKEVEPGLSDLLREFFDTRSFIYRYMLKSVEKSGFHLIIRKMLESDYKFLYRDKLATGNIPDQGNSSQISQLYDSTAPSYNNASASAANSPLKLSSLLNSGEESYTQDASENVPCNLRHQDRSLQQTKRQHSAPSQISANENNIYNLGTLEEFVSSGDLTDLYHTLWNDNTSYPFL
# Test: PBM E-score (8-mer binding enrichment) (E-score (-0.5 to 0.5)); higher = stronger / more preferred TF binding; most listed sequences are background and not binding sites
# Settings: protein concentration: 200 nM; construct: GST-full length
# Procedure, shortened: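 The E-score, a modified Wilcoxon-Mann-Whitney statistic, was computed by the Universal PBM Analysis Suite for every ungapped eight-base word pooled with its reverse complement. Scans behind it were normalised with masliner after bound GST-tagged yeast transcription factors were detected with fluorescent anti-GST. The proteins, at about 100-200 nM, had been applied to universal all-10-mer Agilent arrays made double-stranded by primer extension.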
row,Sequence,PBM E-score
1,GTGTTTGA,-0.166
2,GCTCCGAA,0.361
3,AGTATTCC,0.34
4,CAGCACTA,-0.225
5,CTATTCGA,-0.315
6,CTTGCCGC,0.148
7,CAAAGTCA,-0.0562
8,AGATGCAC,-0.204
9,GAATTCAA,0.171
10,GGCATCCA,-0.23
11,CCGAGGTA,0.238
12,GGTTAGCA,-0.243
13,AAAAATGC,0.19
14,GAAGCTTC,0.22
15,CATTTGAC,-0.0401
16,CCGACGGA,0.413
17,GTAGGACA,-0.0244
18,CTTGAGCA,-0.262
19,ACGGCAAT,0.193
20,GCGACTCA,-0.186
21,GGAACAAA,0.352
22,GAAAATTA,0.0464
23,CAGGCTCG,-0.00697
24,TCACGTGA,0.0624
25,GTCCCAAA,-0.154

row,Sequence,PBM E-score
1,CTAACTAC,-0.168
2,CGTAGGAC,-0.0491
3,GACACAAA,0.113
4,CCTTTCTA,-0.144
5,ACAAGAAA,0.0587
6,ACCAGGAC,0.00157
7,AGGCGAGA,-0.239
8,AGAATGAG,-0.14
9,AGAATCAC,0.112
10,CCACGTCG,0.031
11,GCTTACTA,-0.0891
12,ACAACGGG,0.221
13,CGACTAGA,-0.284
14,CCAGGCTA,-0.242
15,ACTCACCG,0.00845
16,CGGAATCC,0.461
17,CTCGTGCA,-0.016
18,CGCGATAC,0.178
19,AATCCATA,0.0673
20,GAAACCCA,0.12
21,CTTAACAA,-0.113
22,AGTCCCGG,0.347
23,AAAGCTCA,-0.213
24,AGACAATC,0.0204
25,ACAGATCG,-0.109

row,Sequence,PBM E-score
1,CTGCACGC,-0.191
2,AAGCCTAG,-0.191
3,TGAGACCA,-0.113
4,ATCTGTTG,-0.19
5,AGCTGCGG,0.133
6,GCGCTATA,-0.0583
7,CACGTTAA,-0.185
8,CCCGCGTA,0.157
9,TACCGGAA,0.44
10,CTCGGTAC,-0.072
11,CCCGACAA,0.281
12,CTAGGACC,-0.256
13,AGTAGAGA,-0.199
14,GAGCGGGC,0.113
15,AGGATGAA,-0.204
16,ATGGGCAC,0.032
17,GCGCTCAC,0.0758
18,ACAATGGG,0.121
19,CGTCTGTA,-0.14
20,AGTATAAA,0.217
21,CCCGTGCA,0.104
22,CCTCAGAG,-0.148
23,AGCCTTAG,-0.37
24,AGGTGTGC,-0.0606
25,ACATTATG,-0.0135

row,Sequence,PBM E-score
1,GATTGAAA,-0.0455
2,CTCACGAC,-0.0746
3,AAGGCTGG,-0.352
4,CCCAAAAG,-0.143
5,AGTGGAGA,-0.117
6,ATAGTGGC,-0.107
7,ATAGGGGG,-0.183
8,ACGACAGT,-0.19
9,AATACTCA,-0.0375
10,TACGCGCA,0.0833
11,AGTCTGGC,-0.171
12,CGAACATC,0.0578
13,GTCCCAGA,-0.271
14,TCTCGAGA,-0.111
15,AGGTCTAT,-0.0513
16,AGATCAAT,-0.0927
17,GCTTATAA,-0.0228
18,ACCGCAGA,-0.143
19,ACATGTTA,-0.0758
20,CTAGTATC,0.188
21,AACATACT,0.0104
22,CATAAGCA,-0.181
23,TAACACCA,-0.0859
24,CTATATGC,0.0111
25,CGACGCTA,-0.152

row,Sequence,PBM E-score
1,AGCCGAGG,0.163
2,AATTTGAA,0.05
3,GATCTAGC,-0.139
4,CCGATAAG,0.132
5,AGGCTATG,-0.213
6,CGTGATTA,0.0343
7,GAGTTAAC,-0.0893
8,CCAGGCGC,-0.0229
9,ACGACGAC,-0.11
10,GAACATCA,0.0015
11,GCTCGTCC,-0.0189
12,ATGTGTAA,-0.145
13,CAGTGCGC,-0.0956
14,CGTTGACC,-0.122
15,GAAGCATC,0.0724
16,CCAATGGA,-0.0405
17,CAGCTGGC,0.0297
18,CTTAACGC,-0.195
19,ACCCCAGG,-0.219
20,CTGGAACC,-0.00182
21,AACCAGCT,-0.206
22,AGTCAGAT,-0.213
23,ATACGAGC,-0.0573
24,CATACTGG,-0.0204
25,GTTCTGTA,-0.0301

row,Sequence,PBM E-score
1,ACTTCAGG,-0.0654
2,AGAACATA,0.077
3,AAGGAACG,0.00917
4,ATCATACG,-0.00908
5,AGCCGCCG,0.232
6,ATACTGAA,-0.0961
7,AACACCTG,-0.156
8,ATCCGGCC,0.403
9,CTTGACAC,-0.222
10,GCCCTATA,-0.0113
11,TAAAAAGA,-0.101
12,ACGTGCGC,0.0301
13,CAACGCCA,-0.123
14,TTCCCAAA,-0.0652
15,CATGCTGA,0.0243
16,ATTATATC,0.0149
17,GAGCCCAA,-0.0941
18,CATGCACC,-0.0886
19,CTCGAGTC,-0.0944
20,ATGGAGAC,-0.0549
21,CGGTATTC,0.18
22,AAAGTTAT,0.0193
23,CCAGATAG,-0.228
24,GGTATGAA,-0.116
25,GGGTTGCA,0.0143

row,Sequence,PBM E-score
1,AAGATTGC,0.0486
2,CTGCGTGA,-0.00693
3,AGCAAATA,-0.0908
4,GGCTCTAA,-0.0483
5,CAAGGGTC,0.0449
6,CGTAACGC,-0.0244
7,AGGTCAAG,-0.162
8,CCCGCTTA,0.00181
9,GCAGCTCC,0.144
10,CAGCCATG,-0.166
11,GTTGCGTA,-0.0271
12,CGAAATAC,0.151
13,AAGCTATA,-0.173
14,ATCTCGTA,-0.243
15,AACGGAGT,0.373
16,ACGTAAGC,-0.169
17,CGAGGTGC,0.207
18,GCTAGCTA,-0.199
19,GGTTAGAA,-0.283
20,TACTAGAA,-0.0849
21,CAGGCGAC,-0.102
22,AGTGTGGG,-0.0143
23,AGCAAAGG,-0.134
24,GGCGATTA,0.0397
25,AATGCTAA,-0.135

row,Sequence,PBM E-score
1,ACGCAGAG,-0.077
2,GGTTAAGA,-0.0956
3,GGTGAAAC,0.0534
4,TCAGATCA,-0.159
5,GTACGAGA,-0.0245
6,ACATGACC,-0.157
7,AGTAAGAC,-0.206
8,GAAACTCC,0.0961
9,CTTTTATC,0.05
10,ATTTCGAA,-0.0579
11,CTTGTCCC,0.19
12,GTAGTACA,-0.11
13,ATCACGAT,-0.0869
14,ACGCTAAG,-0.35
15,GGACAGGA,-0.126
16,ATCGAAGG,-0.0602
17,GTGTGAAA,0.127
18,AACTTGAG,-0.238
19,ATGTGCTA,-0.0352
20,AGTAACTC,0.00658
21,GTCCCACA,0.0823
22,CATCCACA,-0.0598
23,CGACCATC,0.0557
24,CTATCTGA,-0.22
25,GCCGTCGC,0.0748

row,Sequence,PBM E-score
1,ACGCTTTA,-0.233
2,TAATCTGA,-0.121
3,CGATTTCC,0.299
4,CAGGTCAC,-0.277
5,GGCAGATA,0.093
6,CCCACCGA,-0.0239
7,CGATGCCG,0.188
8,CCCATCCA,0.00501
9,CAAAGCAA,0.0611
10,CGAGCGGC,0.228
11,AGTCAGTC,-0.153
12,GAGCTAAC,0.0315
13,AATTCCGG,0.449
14,ACCCCAAT,-0.105
15,GCCGGCCA,0.302
16,ACTCAACC,-0.035
17,TATACTCA,-0.15
18,CCGAAGAA,0.173
19,ACGAACCC,0.122
